Hit rate of the full screen: of about 150,000 compounds, about 540 (0.36%) showed an effect of 50% or more. This is one part of the list.

This assay has as its system Plasmodium falciparum. As to the kind of experiment: Primary screen in NF54 nanoGlo assay, in single point, at 2uM, 72h; a lower Z score goes with more inhibition. Type of assay: functional, Erythrocyte. To be noted: timepoint 72 hour.
In the case of `c1ccc(-c2cncnc2NCC23COCCN2CCOC3)cc1`, the % Inhibition (in general, the relative decrease from the control value, in per cent) is given as -7% and the Z score was 1.32.

As for `Cn1cc(C(=O)n2ccnc2)c2ccccc21`, the “% Inhibition” value is listed as -8% and the Z score came to 0.97.

On to `CCC1(NC(=O)c2cnn(Cc3ccc(OC)c(OC)c3)c2)CC1`, for which the “% Inhibition” value came to 32% and the Z score is -3.58.

On to `CCn1ccc(C(=O)N[C@@H]2CCC[C@H]2N(C)C)n1`, for which the “% Inhibition” value is recorded as -19% and the Z score was 2.9.

Take `c1nc(CN2CCOC3CCCCC32)cs1` (stereo not drawn): the “% Inhibition” value turned out to be 4% and the Z score is on record as -0.53.

In the case of `CC(C)(C)c1noc(=O)n1Cc1nc(-c2ccc(F)cc2)no1`, the “% Inhibition” value is 9% and the Z score is -1.88.

As for `Cc1nc(N2C[C@@H]3NCCO[C@H]3C2)sc1C`, the “% Inhibition” value is given as -6% and the Z score was determined as 0.53.

Take `COC[C@H](Cc1ccccc1)NCC(F)F`: the “% Inhibition” value is -10% and the Z score is recorded as 1.32.

As for `COCCN(C)[C@@H](C)Cc1cccs1`, the “% Inhibition” value is recorded as -5% and the Z score was 0.73.

Regarding `CN1CCC[C@@]2(CCN(C(=O)Nc3cccc(N(C)C)n3)C2)C1`, the “% Inhibition” value is -2% and the Z score amounted to 0.27.

For the compound `O=S(=O)(F)CCN(CCS(=O)(=O)F)CC1(c2ccc(F)cc2)CC1`, the “% Inhibition” value amounted to 2% and the Z score is reported as -0.21.

With `O=C(c1ccccc1)[C@H]1CCCN(Cc2nc3ncccn3n2)C1`, the “% Inhibition” value is -9% and the Z score came to 1.82.

In the case of `Cc1ncsc1CN1[C@@H]2CC[C@H]1CN(C)CC2`, the “% Inhibition” value was 2% and the Z score is given as -0.3.

As to `CCn1c2ccccc2c2cc(CN3CCN(C(=O)COc4ccc5ccccc5c4)CC3)ccc21`, the “% Inhibition” value was -4% and the Z score came out at 0.48.

Take `Cc1ncoc1C(=O)N1CC[C@@H]2CN(Cc3cccnc3)[C@@H]2C1`: the “% Inhibition” value is listed as -14% and the Z score is listed as 1.87.

Take `C[C@@H](Cc1ccccc1Cl)NC(=O)NC(C(N)=O)C(N)=O`: the “% Inhibition” value was -2% and the Z score turned out to be 0.23.

Consider `COc1ccc(NC(=O)CN2C(=O)CN=C(c3ccc(F)cc3)c3c2sc(C)c3C)cc1`, for which the “% Inhibition” value is given as -9% and the Z score is 1.18.

Take `c1ccc2c(c1)C[C@H](Cc1ccc3c(c1)CNCC3)CO2`: the “% Inhibition” value turned out to be 3% and the Z score is listed as -0.36.

In the case of `CCC(CC)CN1CC2(CCN(C)CC2)OC1=O`, the “% Inhibition” value is -1% and the Z score came out at 0.15.

For `CC(CCCC(C)(C)O)NC1CCCC(C)(C)C1` (stereo not drawn), the “% Inhibition” value is -11% and the Z score worked out at 1.8.

Take `C[C@H](NCCc1c[nH]c2ccccc12)c1ccncc1`: the “% Inhibition” value is on record as -1% and the Z score was 0.12.

In the case of `CCN(CC)c1ccc([C@@H]2CC(c3c(O)n(C)c(=O)n(C)c3=O)=NN2C(C)=O)cc1`, the “% Inhibition” value is recorded as 3% and the Z score is reported as -0.6.

As to `CO[C@H]1C[C@H]2CC[C@@H](C1)N2C/C=C/c1ccccc1`, the “% Inhibition” value is reported as -5% and the Z score was 0.97.

Turning to `CC(C)n1ncc(C(=O)N[C@H](C(=O)OCc2ccccc2)C(C)(C)C)c1Cl`, the “% Inhibition” value is listed as -3% and the Z score was 0.49.

As for `O=C1OC[C@H]2CN(Cc3cccnc3)CCN12`, the “% Inhibition” value is -3% and the Z score is on record as 0.46.

For the compound `O=C(CN1CCCC1=O)NCC[C@H]1CCCOC1`, the “% Inhibition” value is on record as -1% and the Z score is 0.2.

Take `CC1CCC(NCCc2c[nH]c3ccccc23)CC1` (stereo not drawn): the “% Inhibition” value is given as -1% and the Z score was 0.17.

In the case of `CCc1cc(NC(=O)c2cn(C(C)C)nn2)ccc1C`, the “% Inhibition” value came out at 5% and the Z score is on record as -0.64.

Take `CCN1CN(CC(=O)N[C@@H](C)Cc2ccccc2C)CC1=O`: the “% Inhibition” value was determined as 0% and the Z score is 0.01.

On to `Cc1ccnc(N2CCC(CO)(Nc3ccccc3)CC2)n1`, for which the “% Inhibition” value is on record as -7% and the Z score was 1.03.

Take `COc1cccc(-c2cnc(-c3ccc(CNC(=O)c4ccc(S(=O)(=O)F)cc4)cc3)[nH]2)c1`: the “% Inhibition” value is recorded as 1% and the Z score is listed as -0.17.

`CCCc1n[nH]cc1C(=O)N1C[C@H](c2ccccc2)[C@@H]2[C@H]1C1CCN2CC1`: the “% Inhibition” value was -6% and the Z score came out at 0.94.

In the case of `O=C1NCCCC1N1CCN2CCCCC2C1` (stereo not drawn), the “% Inhibition” value was found to be 11% and the Z score is listed as -1.45.

For the compound `Cc1nc(CN2CC3CC2(C(F)(F)F)C3)sc1C`, the “% Inhibition” value is given as -1% and the Z score was found to be 0.17.

`O=C(c1ccccc1Cn1cccn1)N1C2CCC1C(CO)C2` (stereo not drawn): the “% Inhibition” value is reported as -32% and the Z score was determined as 3.74.

As to `COc1cc(C[C@H]2C(=O)NC(=O)N(Cc3ccccc3)C2=O)ccc1O`, the “% Inhibition” value is on record as -9% and the Z score came out at 1.33.

Take `CC(C)N(C)C(=O)N1CCN2C[C@@H](F)C[C@H]2C1`: the “% Inhibition” value stood at 28% and the Z score is on record as -3.14.

`c1nc(N2C[C@@H]3NCCO[C@H]3C2)c2ccsc2n1`: the “% Inhibition” value was -10% and the Z score is reported as 1.35.

For the compound `CCC1CN(Cc2cncnc2)CC2(CCOC2)O1` (stereo not drawn), the “% Inhibition” value was 0% and the Z score is reported as -0.02.

In the case of `O=C(Nc1cn[nH]c1)Oc1ccccc1`, the “% Inhibition” value is listed as 28% and the Z score is -3.21.

As to `O=C(CN1CCCC1=O)NCC1(N2CCOCC2)CCCCC1`, the “% Inhibition” value was -6% and the Z score is given as 1.15.

For `Cc1nn(C(C)(C)C)cc1C(=O)Nc1ccc2cn(C(C)C)nc2c1`, the “% Inhibition” value is -4% and the Z score was 0.44.

In the case of `CCCn1c(=O)oc2cc(S(=O)(=O)N3CCC(CC(=O)Nc4cc(C)ccc4C)CC3)ccc21`, the “% Inhibition” value is on record as -20% and the Z score is reported as 1.83.

With `CC1CN2c3ccccc3CC3(C(=O)N(c4ccccc4)C(=O)N=C3O)C2C(C)O1` (stereo not drawn), the “% Inhibition” value came to 6% and the Z score was -0.72.

For the origin of these results see ChEMBL document CHEMBL4888484, “Replenishing the malaria drug discovery pipeline: Screening and hit evaluation of the MMV Hit Generation Library 1 (HGL1) against asexual blood stage Plasmodium falciparum ,using a nano luciferase reporter read-out” (2022).
